In PubChem BioAssay AID686978 (National Center for Advancing Translational Sciences (NCATS), 2013):
About 64,000 (15%) of roughly 420,000 compounds were called active. Inconclusive means that the source gave no clear call. Such entries were picked first, then a sample of the others. Calls follow the shape of the dose curve; as a rule, active = well fitted inhibition curve with a large enough effect; inconclusive = small, poorly fitted or top-dose-only effect; inactive = flat fitted curve, though single readings scatter. Potencies of inconclusive entries are left out as doubtful fits.

Experiment: qHTS for Inhibitors of human tyrosyl-DNA phosphodiesterase 1 (TDP1): qHTS in cells in absence of CPT; also: nearly all actives have a fitted effect of over 55% in size
Conditions: DT40 Tdp1-/- hTDP1 cells, no CPT, ATP luminescence, 48 h; activity change, negative = growth inhibition: at 46.2 µM (top of the series) unless noted
Procedure, shortened: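 No-CPT arm: Tdp1-/-;hTDP1 DT40 cells (400/well) plus compounds, incubated ≥48 hr at 37 °C. Readout CellTiter-Glo luminescence.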
% is scaled to controls: 0 for no effect and ±100 for the full control effect; potency is read from the fitted curve at half-maximal effect; tags tell the direction and shape of the fitted curve.

Row | Structure (SMILES) | Potency | activity change, negative = growth inhibition
1 | CCN(CC)S(=O)(=O)c1ccc(C)c(NC(=S)N2CCN(C/C=C/c3ccccc3)CC2)c1 | active: 11.6 µM | –
2 | CC(C)c1onc(C(=O)Nc2ccc3c(c2)OCO3)c1[N+](=O)[O-] | active: 18.4 µM | –
3 | CCNc1ccc(S(=O)(=O)N2CCOCC2)cc1NCC(=O)Nc1cccc(Br)c1 | active: 2.59 µM | –
4 | COc1ccc(C2Nc3ccccc3C(=O)N2Cc2ccco2)cc1COc1ccc(F)cc1 (stereo not given) | inconclusive [inhibitor, single point] | –
5 | Cc1ccc(C2C=C(c3ccccc3)Nc3ncnn32)cc1 (stereo not given) | inconclusive [inhibitor, single point] | –
6 | c1ccc(-c2nccc3ccccc23)cc1 | inactive | –
7 | CC1CCC(NC(=O)c2ccc(-n3cncn3)c([N+](=O)[O-])c2)CC1 (stereo not given) | inactive | –
8 | Cn1c2ccccc2c(=O)c2ccc(-c3ccc4c(c3)OCO4)cc21 | active: 13 µM | –
9 | COc1ccc(NC(=O)c2cc(-c3ccncc3)nc3ccc(Br)cc23)cc1OC | active: 20.6 µM | –
10 | Cc1ccc(S(=O)(=O)c2c(O)cc(C)c(NS(=O)(=O)c3ccc(Br)cc3)c2C)cc1 | inconclusive [inhibitor, single point] | –
11 | CCCCN(C)C(=O)c1cccc(OC2CCN(CC(C)(C)C)CC2)c1 | inconclusive [inhibitor, single point] | –
12 | O=C(CC12CC3CC(CC(C3)C1)C2)Nc1ccccc1N1CCOCC1 | active: 10.3 µM | –
13 | COc1ccc(S(=O)(=O)N2CCOC2CNC(=O)C(=O)NCCc2c[nH]c3ccccc23)cc1 (stereo not given) | inconclusive [inhibitor, single point] | –
14 | COc1ccc(-c2cccc3c2OC(CNC(=O)c2ccccc2-n2cccn2)C3)nn1 (stereo not given) | inconclusive [inhibitor, single point] | –
15 | C[C@H](CO)N1C[C@H](C)[C@@H](CN(C)Cc2ccc(-c3ccccc3)cc2)Oc2c(NC(=O)Cc3ccccc3)cccc2C1=O | active: 23.1 µM | –
16 | CC(C)Oc1cccc(C(=O)C2CCCN(C(=O)c3cc(C(F)(F)F)[nH]n3)C2)c1 (stereo not given) | – | inconclusive: -35.2% [inhibitor]
17 | COc1ccc(NC(=O)c2c(NCc3cccs3)sc3c2CCC(C)C3)c(OC)c1 (stereo not given) | inconclusive [inhibitor, single point] | –
18 | CSc1sc(-c2nnc(SCC(=O)Nc3ccc(Cl)cc3)n2C)c2c1C=CCC2 | inactive | –
19 | COc1ccc(S(=O)(=O)N2CCCCC2)cc1NC(=O)c1cccc(S(=O)(=O)N2CC(C)OC(C)C2)c1 (stereo not given) | inconclusive [inhibitor, single point] | –
20 | CC(=O)/C(=N\Nc1ccccc1)Oc1ccc(Br)cc1 | inconclusive [inhibitor, single point] | –
21 | O=C(NC1CCCC1)c1ccc(CNc2c(N3CCOCC3)c(=O)c2=O)cc1 | inactive | –
22 | C[C@@H]1CN([C@H](C)CO)C(=O)Cc2cc(NC(=O)CCC(F)(F)F)ccc2O[C@@H]1CN(C)C(=O)Nc1ccccc1 | inactive | –
23 | COc1cccc(Cn2c(=O)c(CCc3ccccc3)nc3cncnc32)c1 | inconclusive [inhibitor, single point] | –
24 | CCO/C=C/C(O)(CNC(=O)c1ccc(C(C)(C)C)cc1)C(F)(F)F (stereo not given) | active: 16.4 µM | –
25 | C/C(=N\Nc1ccccc1)c1cc2ccccc2oc1=O | inconclusive [inhibitor, single point] | –

Row | Structure (SMILES) | Potency | activity change, negative = growth inhibition
26 | O=C(COc1ccc2c(c1)OCO2)Nc1nccs1 | inactive | –
27 | NC(=O)[C@@H]1[C@@H]2C(=O)N(c3ccc(F)cc3)C(=O)[C@@H]2[C@H]2C=Cc3ccccc3N21 | inconclusive [inhibitor, single point] | –
28 | Cc1c(C(=O)N2CCOCC2)oc2ccc(S(=O)(=O)N3CCCC3)cc12 | inactive | –
29 | Cc1ccc2nc(/C(C#N)=C\c3ccc(OC(=O)c4cccs4)cc3)[nH]c2c1 | active: 6.51 µM | –
30 | O=C(CSc1nnc(-c2ccccc2Cl)o1)N1CCCc2ccccc21 | active: 16.4 µM | –
31 | S=C(c1ccc(Br)cc1)N1CCN(Cc2ccccc2)CC1 | inconclusive [inhibitor, single point] | –
32 | COCCn1c(=S)[nH]c2sc3c(c2c1=O)CCCC3 | inactive | –
33 | COc1cc(-c2nc3n(c(=O)c2C#N)CCS3)cc(OC)c1OC | inactive | –
34 | O=C(CN(C(=O)Cn1nnc(-c2ccc(F)cc2)n1)c1cccc(F)c1)NC1CCCC1 | inactive | –
35 | Cc1nn(C)c2c1c(C(F)(F)F)cc(=O)n2C(C)C(=O)Nc1ccccc1F (stereo not given) | inactive | –
36 | O=C(Cn1cnc2c(OCc3ccccc3)ncnc21)NCCc1c[nH]c2ccccc12 | inactive | –
37 | C=CCc1cc(C=O)cc(OC)c1OCc1ccc(Cl)cc1 | active: 18.4 µM | –
38 | COc1ccc(S(=O)(=O)NCC(c2cccs2)S(=O)(=O)c2ccccc2)cc1OC (stereo not given) | inactive | –
39 | COc1ccc(-c2nnc(SCC(=O)Nc3cccc(C(F)(F)F)c3)s2)cc1 | inconclusive [inhibitor, partial curve] | –
40 | CCOC(=O)Cn1c(-c2ccc(Cl)nc2)nc2ccccc21 | inactive | –
41 | CCOc1cc(/C=N/NC(=O)c2ccccc2OCc2ccc(F)cc2)ccc1O | active: 13 µM | –
42 | Cc1c(C(=O)N(Cc2ccccc2F)C2CCS(=O)(=O)C2)oc2ccccc12 (stereo not given) | inconclusive [inhibitor, single point] | –
43 | CCn1c(CNC(=O)COc2ccc(C(C)C)cc2)nnc1SCC(=O)NC1CCCCC1C (stereo not given) | inconclusive [inhibitor, partial curve] | –
44 | CO/N=C\CC(=O)Nc1ccc(F)cc1 | inactive | –
45 | CC(=O)N1CCc2cc(Br)cc(S(=O)(=O)CCC(=O)N3CCN(c4ccc(F)cc4)CC3)c21 | inconclusive [inhibitor, partial curve, poor fit] | –
46 | CCC(C)n1c(SCC(=O)/C(C#N)=C(\C)N)nc2ccccc2c1=O (stereo not given) | inconclusive [inhibitor, single point] | –
47 | CCOc1ccc(CCNC(=O)C2CC(=O)N(C3CCCC3)C2)cc1OCC (stereo not given) | inactive | –
48 | COc1ccc(/C=N/Nc2cc(C)nc(-n3nc(C)cc3C)n2)cc1 | active: 4.61 µM | –
49 | COCCNC(=O)CN(Cc1ccc2c(c1)OCO2)C(=O)CCC(=O)Nc1nccs1 | active: 18.4 µM | –
50 | CN(C(=O)c1c(Cl)cnn1C)C12CC3CC(CC(C3)C1)C2 | inconclusive [inhibitor, single point] | –

Row | Structure (SMILES) | Potency | activity change, negative = growth inhibition
51 | CCC(C(=O)NCC1CCCO1)N(Cc1ccc(F)cc1)C(=O)CNS(=O)(=O)c1ccccc1 (stereo not given) | inactive | –
52 | CC(=O)NCC1CCCN(Cc2cn(-c3ccccc3F)nc2-c2cc(C)sc2C)C1 (stereo not given) | inactive | –
53 | CC1CCC2=C1C[C@H](C(C)(C)O)CC[C@@H]2C (stereo not given in full) | – | inactive: 8.78% [at 9.04 µM]
54 | Cc1cccnc1C(NC(=O)C1CCN(Cc2cn(C)c3ccccc23)CC1)c1ccc(Cl)cc1 (stereo not given) | active: 4.61 µM | –
55 | CCOc1ccc(CN2CCC(n3nccc3NC(=O)CCCc3ccccc3)CC2)cc1 | inconclusive [inhibitor, partial curve] | –
56 | C/C(=N/OC(=O)C1CC1)c1cc(-c2ccc(Cl)cc2)no1 | inactive | –
57 | COc1ccc2c(c1)[nH]c1c(=O)n(CCN(C)C)cnc12 | inactive | –
58 | CCOc1ccccc1NC(=O)Nc1ccc2c(c1)OCO2 | inactive | –
59 | O=C(NC1CCN(Cc2ccccc2)CC1)c1cc(S(=O)(=O)N2CCOCC2)ccc1Cl | inactive | –
60 | CCOC(=O)C1(CC2CC2)CCN(C(=O)c2cccnc2C)CC1 | inconclusive [inhibitor, single point] | –
61 | O=C(c1ccc(O)cc1)c1ccc(C(=O)c2ccc(O)cc2)cc1 | inconclusive [inhibitor, partial curve] | –
62 | Cc1ccc(S(=O)(=O)N2CCCC(C(=O)N3CCCc4ccccc43)C2)cc1 (stereo not given) | active: 20.6 µM | –
63 | CCCCCn1nc(C(=O)N2CCc3ccccc32)c2ccccc2c1=O | inconclusive [inhibitor, single point] | –
64 | Cc1nn(C)cc1/C=C/C(=O)c1cccs1 | inactive | –
65 | O=C(c1ccccc1)C1CC1c1ccccc1 (stereo not given) | inconclusive [inhibitor, single point] | –
66 | CC(C)CNC(=O)C1CCCN(C(=O)NCc2ccccc2)C1 (stereo not given) | inactive | –
67 | C#CCOCCOCCOCCNc1nc(N2CCN(C(=O)CCCCCCCCCCNC(=O)[C@@H](CCSC)n3cc(CCO)nn3)CC2)nc(N2CCN(C(=O)CCCCCCCCCCNC(=O)[C@H]([C@@H](C)CC)n3cc(CCCCN=C(N)N)nn3)CC2)n1 | inconclusive [inhibitor, single point] | –
68 | O=C(CN1CCOc2ccccc21)NC1CCCCCCC1 | inactive | –
69 | O=C(O)c1ccc(Cl)c(S(=O)(=O)Nc2cccc(C(=O)Nc3cccc(C(F)(F)F)c3)c2)c1 | inactive | –
70 | Cc1ccc([C@H]2C[C@@H](n3cc(COC(=O)c4ccccc4)nn3)[C@H](O)CN2C(=O)c2cccs2)cc1 | inconclusive [inhibitor, single point] | –
71 | O=[N+]([O-])c1ccc(-c2nnc(-c3ccccc3)c(NCCCO)n2)cc1 | active: 16.4 µM | –
72 | Cc1nn2c(-c3ccc(F)cc3)ccnc2c1Br | – | inconclusive: -32.3% [inhibitor]
73 | CCOc1ccc(S(=O)(=O)Nc2cc(S(=O)(=O)N(CC)CC)ccc2N2CCCC2)cc1 | inconclusive [inhibitor, partial curve] | –
74 | COc1ccc(C(O)c2nc(-c3cccc(C(C)C)c3)cs2)cc1 (stereo not given) | inconclusive [inhibitor, single point] | –
75 | O=C(COc1cc2oc(=O)c3c(c2cc1Cl)CCC3)Nc1ccc(CN2CCOCC2)cc1 | inactive | –
